Measured values published in PubChem BioAssay AID1671193 (National Center for Advancing Translational Sciences (NCATS), 2021).
Out of some 150,000 compounds screened, about 180 (0.12%) were called active. Inconclusive results, whose numbers are uncertain, are shown with a selection of clear calls. The call rests on the fitted dose curve; in most records, active means well fitted cell-killing curve with a large enough effect; inconclusive means small, poorly fitted or top-dose-only effect, or effect the other way; inactive means flat fitted curve, though single readings scatter. A potency beside an inconclusive call is a rough fit, not a confirmed value.

Test: GF-AFC viability counterscreen for inhibitors of alpha-synuclein gene (SNCA) expression; further: nearly all actives have a fitted effect of over 30% in size
Settings: HEK-293-SNCA-luc viability, GF-AFC fluorescence, 24 h; series mostly up to 57.1 µM
Summary of the method: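 HEK-293-SNCA-luc cells (1500/well) plated 24 h, then exposed 24 h to a dilution series; GF-AFC added 30 min at 37C, fluorescence 405/540 nm; normalised to medium-only and DMSO wells, Hill fit.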
Potency means the concentration at half of the fitted maximal effect; tags describe the fitted curve by direction and shape.

| SMILES | Potency |
| --- | --- |
| COc1ccc(-c2[nH]nc3ncc(C(=O)N4CC(O)C4)nc23)c(C)c1 | inconclusive: 2.82 µM [cytotoxic, full curve, poor fit] |
| COc1ccc(Oc2ncc3nc(-c4cccc(C#N)c4)c(=O)n(Cc4cccc(OC)c4)c3n2)cc1 | inconclusive: 2.82 µM [cytotoxic, partial curve, poor fit] |
| Cc1cc(N)c2ccccc2[n+]1CCCCCCCCCC[n+]1c(C)cc(N)c2ccccc21 | inconclusive: 20 µM [cytotoxic, partial curve, poor fit] |
| CNC(=O)c1noc([C@@H]2CC(F)(F)CN2Cc2cn(C)nc2C)n1 | inactive |
| COc1ccc(NC(=O)C2(C)CCc3cnc(N4CCOCC4)nc32)cn1 (configuration not stated) | inactive |
| CC1=C[C@@H](CNC(=O)C2CCCCC2)[C@H](C(C)C)C[C@H]1Cc1nc2ccc(F)cc2[nH]1 | inconclusive: 8.91 µM [cytotoxic, full curve] |
| CCOC(=O)CCNC(=O)N1c2ccccc2CC1c1nc(C2CC2)no1 (configuration not stated) | inactive |
| CCN1CCN(C(=O)c2nc3sccn3c2-c2ccc(C(F)(F)F)cc2)CC1 | inactive |
| COc1ccc(-c2nc(-c3nnn4c3COC(c3ccccc3Cl)C4)no2)cc1F (configuration not stated) | inconclusive: 17.8 µM [rising, partial curve, poor fit] |
| CC1(C)CC[C@]23CO[C@@]4(CCC5[C@@]6(C)CC[C@H](O[C@@H]7OC[C@H](O[C@@H]8O[C@H](CO)[C@@H](O)[C@H](O)[C@H]8O)[C@H](O)[C@H]7O[C@@H]7O[C@H](CO)[C@@H](O[C@@H]8O[C@H](CO)[C@@H](O)[C@H](O)[C@H]8O)[C@H](O)[C@H]7O)[C@@](C)(CO)C6CC[C@@]5(C)[C@]4(C)C[C@H]2OC2OCC(O)C(O)C2O)C3C1 (some centres not stated) | inconclusive: 4.49 µM [cytotoxic, partial curve, poor fit] |
| COc1ccc(CCc2nc3cc(-c4c(C)noc4C)ccc3n2CC(C)N2CCOCC2)cc1Cl (configuration not stated) | inconclusive: 29.9 µM [cytotoxic, partial curve, poor fit] |
| CCOC(=O)c1ccc(N2C(=O)c3n[nH]c(-c4ccco4)c3C2c2ccc(C)cc2)cc1 (configuration not stated) | inconclusive: 25.1 µM [cytotoxic, partial curve, poor fit] |
| CCN1c2cc(C(=O)NCc3ccc(F)cc3)ccc2C(=O)N2CCCCC21 (configuration not stated) | inconclusive: 7.08 µM [rising, single point] |
| CCC(c1ccccn1)N(C)C(=O)c1cc(COc2ccccc2)[nH]n1 (configuration not stated) | inconclusive: 10 µM [rising, partial curve, poor fit] |
| COc1ccc(C(=O)N[C@@H]2CCC[C@@H]2C(=O)NC(C)C)cc1 | inconclusive: 15.8 µM [cytotoxic, partial curve, poor fit] |
| COc1ccc(NC(=O)CN2C(=O)COc3ccc(S(=O)(=O)N4CCCCCC4)cc32)cc1 | inconclusive: 11.2 µM [cytotoxic, partial curve, poor fit] |
| c1ccc(-c2ccccc2Nc2cnc3ccc(N4CCOCC4)nn23)cc1 | inconclusive: 56.2 µM [rising, single point] |
| O=C(Nc1nc2n(n1)C(c1ccc(F)cc1)C=C(c1ccccc1)N2)c1ccco1 (configuration not stated) | inconclusive: 39.8 µM [rising, single point] |
| Cc1noc(C)c1CC(=O)N1CCC(Cc2noc(-c3ccccc3)n2)C1 (configuration not stated) | inconclusive: 39.8 µM [cytotoxic, single point] |

| SMILES | Potency |
| --- | --- |
| CN(Cc1cccn1C)Cc1cccn1C | inconclusive: 70.8 µM [cytotoxic, single point] |
| O=c1[nH]c(C2CCCN(Cc3cccc(-c4cccnc4)c3)C2)nc2ccc(F)cc12 (configuration not stated) | inactive |
| COc1cccc(Cn2c(=O)c(-c3cn(C)c4ccccc34)nc3cnc(N4CCOCC4)nc32)c1 | inconclusive: 28.2 µM [rising, single point] |
| O=C(c1ccc(CC2CCN(C(=O)c3ccccn3)CC2)cc1)N1CCOCC1 | inconclusive: 3.16 µM [cytotoxic, single point] |
| N#Cc1ccc(O[C@@H]2CCOC[C@H]2NC(=O)C2(N3CCCC3)CCCC2)cc1 | inconclusive: 11.2 µM [cytotoxic, partial curve, poor fit] |
| CC(=O)N1CCN(C[C@@H]2C=C(C)[C@H](Cc3nnc(-c4ccccc4F)o3)C[C@H]2C(C)C)CC1 | inconclusive: 8.91 µM [cytotoxic, partial curve] |
| O=C(NC1CCCN(c2ccnc3ccnn23)C1)c1ccc2c(c1)OCO2 (configuration not stated) | inconclusive: 7.94 µM [cytotoxic, partial curve] |
| CN1Cc2cccn2CC1CNC(=O)c1cccs1 (configuration not stated) | inactive |
| Cc1noc([C@@H]2CN(Cc3cc(F)ccc3F)C[C@H]2CO)n1 | inactive |
| CCN(CC)c1nc2ccccc2nc1C(=O)Nc1cc(OC)c(OC)c(OC)c1 | inconclusive: 28.2 µM [cytotoxic, single point] |
| COc1ccc(-n2nc(C(=O)N3CCCC(C)C3)c3c4ccccc4n(C)c3c2=O)cc1Cl (configuration not stated) | inconclusive: 2.82 µM [cytotoxic, full curve] |
| COc1ccc(-c2ccc3ncc(Nc4ccnc(N5CCOCC5)c4)n3n2)cn1 | inconclusive: 8.91 µM [cytotoxic, partial curve, poor fit] |
| CC(C)Cc1cc(C(=O)N[C@H](C2CCNCC2)C2CC(O)C2)nc(N)n1 (some centres not stated) | inactive |
| CC1(C(=O)NCC2CCCO2)COCc2cnc(Nc3ccccc3)nc21 (configuration not stated) | inactive |
| C/C1=C\CCC2=CC(OC2=O)C(C)(C)/C=C/C1=O (configuration not stated) | inconclusive: 33.6 µM [cytotoxic, partial curve, poor fit] |
| CN(c1ncccc1CNC(=O)C1CCOCC1)C1CCCCC1 | inconclusive: 3.98 µM [rising, single point] |
| CCc1ccc(C(=O)N2c3ccccc3CC2c2nc(C3CC3)no2)cc1 (configuration not stated) | inconclusive: 39.8 µM [cytotoxic, single point] |
| N#Cc1ccc(CN2CCC3(CC2)CCN(C(=O)c2csnn2)CC3)cc1 | inconclusive: 8.91 µM [cytotoxic, partial curve, poor fit] |
